At least one peptide structure holds a part that was inferred or is arguable (an end, a ring closure or a residue). *1 amine or outer side, *2 acyl side, *3 side chain or, on linkers, in order; H or OH if unused. Where a SMILES comes first, the peptide text is derived from it. Bridges are numbered along the chain shown (N, C = ends). [ ]: non-standard residue; d: D form. TATA = O=C(CC[*:1])N1CN(C(=O)CC[*:2])CN(C(=O)CC[*:3])C1; hArg = N=C(N)NCCCC[C@H](N)C(=O)O; Nle = CCCC[C@H](N)C(=O)O
Each molecule was assayed against T1, human Nectin-4 (Homo sapiens, UniProt Q96NY8) (assay: Nectin-4 competition binding assay (fluorescence polarisation)). Settings: competition with fluorescent peptide SEQ ID NO: 217.
T1 sequence (Q96NY8 32-510): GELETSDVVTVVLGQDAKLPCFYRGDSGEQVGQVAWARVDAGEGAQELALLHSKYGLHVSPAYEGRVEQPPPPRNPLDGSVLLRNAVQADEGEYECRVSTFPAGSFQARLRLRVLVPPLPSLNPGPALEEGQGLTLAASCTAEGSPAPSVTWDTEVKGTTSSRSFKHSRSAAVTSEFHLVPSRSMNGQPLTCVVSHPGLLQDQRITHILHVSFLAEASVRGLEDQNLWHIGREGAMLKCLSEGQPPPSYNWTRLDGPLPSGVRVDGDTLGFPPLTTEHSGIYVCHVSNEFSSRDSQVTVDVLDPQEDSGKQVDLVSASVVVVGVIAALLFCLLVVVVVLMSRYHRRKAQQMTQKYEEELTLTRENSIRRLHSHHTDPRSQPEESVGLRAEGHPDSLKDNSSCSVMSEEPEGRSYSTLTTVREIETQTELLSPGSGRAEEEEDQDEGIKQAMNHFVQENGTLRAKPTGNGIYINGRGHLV
Procedure: Peptides were diluted to an appropriate concentration in assay buffer as described in the direct binding assay with a maximum of 5% DMSO, then serially diluted 1 in 2. Five μL of diluted peptide was added to the plate followed by 10 μL of human Nectin-4, then 10 μL fluorescent peptide added. Measurements were conducted as for the direct binding assay, however the gain was determined prior to the first measurement. Data analysis was in Systat Sigmaplot version 12.0 where the mP values were fit to a user defined cubic equation to generate a Ki value: • f=ymin+(ymax−ymin)/Lig*((Lig*((2*((Klig+Kcomp+Lig+Comp-Prot*c)^2-3*(Kcomp*(Lig-Prot*c)+Klig*(Comp-Prot*c)+Klig*Kcomp))^0.5*COS(ARCCOS((−2*(Klig+Kcomp+Lig+Comp-Prot*c)^3+9*(Klig+Kcomp+Lig+Comp-Prot*c)*(Kcomp*(Lig-Prot*c)+Klig*(Comp-Prot*c)+Klig*Kcomp)−27*(−1*Klig*Kcomp*Prot*c)/(2*((((Klig+Kcomp+Lig+Comp-Prot*c)^2−3*(Kcomp*(Lig-Prot*c)+Klig*(Comp-Prot*c)+Klig*Kcomp))^3)^0.5)))/3))−(Klig+Kcomp+Lig+Comp-Prot*c)))/((3*Klig)+((2*((Klig+Kcomp+Lig+Comp-Prot*c)^2−3*(Kcomp*(Lig-Prot*c)+Klig*(Comp-Prot*c)+Klig*Kcomp))^0.5*COS (ARCCOS ((−2*(Klig+Kcomp+Lig+Comp-Prot*c)^3+9*(Klig+Kcomp+Lig+Comp-Prot*c)*(Kcomp*(Lig-Prot*c)+Klig*(Comp-Prot*c)+Klig*Kcomp)-27*(−1*Klig*Kcomp*Prot*c))/(2*((((Klig+Kcomp+Lig+Comp-Prot*c)^2-3*(Kcomp*(Lig-Prot*c)+Klig*(Comp-Prot+c)+Klig*Kcomp))^3)^0.5))/3)−(Klig+Kcomp+Lig+Comp-Prot*c)))).
“Lig”, “KLig” and “Prot” were all defined values relating to: fluorescent peptide concentration, the Kd of the fluorescent peptide and Nectin concentration respectively.
With `CC[C@H](C)[C@@H]1NC(=O)[C@@H]2CCCN2C(=O)[C@H](Cc2c[nH]c3ccccc23)NC(=O)[C@H](CO)NC(=O)[C@H](Cc2c[nH]c3ccccc23)NC(=O)[C@H](CC(N)=O)NC(=O)[C@H](CCCCNC(=N)N)NC(=O)[C@H](CCSC)NC(=O)[C@@H]2CSCCC(=O)N3CN(CN(C3)C(=O)CCSC[C@H](NC(=O)[C@H](C)N)C(=O)N3CCC[C@H]3C(=O)N[C@@H](Cc3ccccc3)C(=O)NCC(=O)N2)C(=O)CCSC[C@@H](C(=O)N[C@H](C(=O)N[C@@H](CC(N)=O)C(=O)N[C@@H](CCCCN)C(N)=O)[C@@H](C)O)NC(=O)[C@H](Cc2c[nH]c3ccccc23)NC1=O` [BCY7265, A-(SEQ ID NO: 59)-TNK] the Ki was 38.3 nM. `CC[C@H](C)[C@@H]1NC(=O)[C@@H]2CCCN2C(=O)[C@H](Cc2c[nH]c3ccccc23)NC(=O)[C@H](CO)NC(=O)[C@H](Cc2c[nH]c3ccccc23)NC(=O)[C@H](CC(N)=O)NC(=O)[C@H](CCCCNC(C)=O)NC(=O)[C@H](CCSC)NC(=O)[C@@H]2CSCCC(=O)N3CN(CN(C3)C(=O)CCSC[C@H](NC(=O)[C@H](C)N)C(=O)N3CCC[C@H]3C(=O)N[C@@H](Cc3ccccc3)C(=O)NCC(=O)N2)C(=O)CCSC[C@@H](C(=O)N[C@H](C(=O)N[C@@H](CC(N)=O)C(=O)N[C@@H](CCCCN)C(N)=O)[C@@H](C)O)NC(=O)[C@H](Cc2c[nH]c3ccccc23)NC1=O` [BCY7266, A-(SEQ ID NO: 60)-TNK] showed a Ki of 41 nM. Molecule `CC[C@H](C)[C@@H]1NC(=O)[C@@H]2CCCN2C(=O)[C@H](Cc2c[nH]c3ccccc23)NC(=O)[C@H](CO)NC(=O)[C@H](Cc2c[nH]c3ccccc23)NC(=O)[C@H](CO)NC(=O)[C@H](CCCCN)NC(=O)[C@H](CCSC)NC(=O)[C@@H]2CSCCC(=O)N3CN(CN(C3)C(=O)CCSC[C@H](NC(=O)[C@H](CO)NC(=O)[C@H](CC(=O)O)NC(=O)[C@H](N)Cc3c[nH]cn3)C(=O)N3CCC[C@H]3C(=O)N[C@@H](Cc3ccccc3)C(=O)NCC(=O)N2)C(=O)CCSC[C@@H](C(=O)N[C@@H](C)C(N)=O)NC(=O)[C@H](Cc2c[nH]c3ccccc23)NC1=O` [BCY7272, (D-H)DS-(SEQ ID NO: 51)-A] (H-[dH]DSCPFGCMKSWSWPIWCA-NH2; linker 4-8-18 via TATA; N-terminus and C-terminus assumed) has a Ki of 41 nM. Molecule `CC[C@H](C)[C@@H]1NC(=O)[C@@H]2CCCN2C(=O)[C@H](Cc2c[nH]c3ccccc23)NC(=O)[C@H](CO)NC(=O)[C@H](Cc2c[nH]c3ccccc23)NC(=O)[C@H](CO)NC(=O)[C@H](CCCCNC(C)=O)NC(=O)[C@H](CCSC)NC(=O)[C@@H]2CSCCC(=O)N3CN(CN(C3)C(=O)CCSC[C@H](NC(=O)[C@H](CO)NC(=O)[C@H](CC(=O)O)NC(=O)[C@@H](N)Cc3c[nH]cn3)C(=O)N3CCC[C@H]3C(=O)N[C@@H](Cc3ccccc3)C(=O)NCC(=O)N2)C(=O)CCSC[C@@H](C(=O)N[C@@H](C)C(N)=O)NC(=O)[C@H](Cc2c[nH]c3ccccc23)NC1=O` [BCY7273, HDS-(SEQ ID NO: 61)-A] (H-HDSCPFGCMK(Ac)SWSWPIWCA-NH2; linker 4-8-18 via TATA; N-terminus and C-terminus assumed) has a Ki of 84 nM. For `CCCC[C@@H]1NC(=O)[C@@H]2CSCCC(=O)N3CN(CN(C3)C(=O)CCSC[C@H](NC(=O)[C@H](CO)NC(=O)[C@H](CC(=O)O)NC(=O)[C@@H](N)Cc3c[nH]cn3)C(=O)N3CCC[C@H]3C(=O)N[C@@H](Cc3ccccc3)C(=O)NCC(=O)N2)C(=O)CCSC[C@@H](C(=O)N[C@@H](C)C(N)=O)NC(=O)[C@H](Cc2c[nH]c3ccccc23)NC(=O)[C@H]([C@@H](C)CC)NC(=O)[C@@H]2CCCN2C(=O)[C@H](Cc2c[nH]c3ccccc23)NC(=O)[C@H](CO)NC(=O)[C@H](Cc2c[nH]c3ccccc23)NC(=O)[C@H](CO)NC(=O)[C@H](CCCCN)NC1=O` [BCY7274, HDS-(SEQ ID NO: 62)-A] (H-HDSCPFGC[Nle]KSWSWPIWCA-NH2; linker 4-8-18 via TATA; N-terminus and C-terminus assumed), the Ki was 90.5 nM. `CC[C@H](C)[C@@H]1NC(=O)[C@@H]2CCCN2C(=O)[C@H](Cc2c[nH]c3ccccc23)NC(=O)[C@H](CO)NC(=O)[C@H](Cc2c[nH]c3ccccc23)NC(=O)[C@H](CO)NC(=O)[C@H](CCCCNC(=N)N)NC(=O)[C@H](CCSC)NC(=O)[C@@H]2CSCCC(=O)N3CN(CN(C3)C(=O)CCSC[C@H](NC(=O)[C@H](CO)NC(=O)[C@H](CC(=O)O)NC(=O)[C@@H](N)Cc3c[nH]cn3)C(=O)N3CCC[C@H]3C(=O)N[C@@H](Cc3ccccc3)C(=O)NCC(=O)N2)C(=O)CCSC[C@@H](C(=O)N[C@@H](C)C(N)=O)NC(=O)[C@H](Cc2c[nH]c3ccccc23)NC1=O` [BCY7275, HDS-(SEQ ID NO: 63)-A] (H-HDSCPFGCM[hArg]SWSWPIWCA-NH2; linker 4-8-18 via TATA; N-terminus and C-terminus assumed) was tested, and the Ki was 43.3 nM. `CC[C@H](C)[C@@H]1NC(=O)[C@@H]2CCCN2C(=O)[C@H](Cc2c[nH]c3ccccc23)NC(=O)[C@H](CO)NC(=O)[C@H](Cc2c[nH]c3ccccc23)NC(=O)[C@H](CO)NC(=O)[C@@H](CCCCN)NC(=O)[C@H](CCSC)NC(=O)[C@@H]2CSCCC(=O)N3CN(CN(C3)C(=O)CCSC[C@H](NC(=O)[C@H](CO)NC(=O)[C@H](CC(=O)O)NC(=O)[C@@H](N)Cc3c[nH]cn3)C(=O)N3CCC[C@H]3C(=O)N[C@@H](Cc3ccccc3)C(=O)NCC(=O)N2)C(=O)CCSC[C@@H](C(=O)N[C@@H](C)C(N)=O)NC(=O)[C@H](Cc2c[nH]c3ccccc23)NC1=O` [BCY7276, HDS-(SEQ ID NO: 64)-A] (H-HDSCPFGCM[dK]SWSWPIWCA-NH2; linker 4-8-18 via TATA; N-terminus and C-terminus assumed) gave a Ki of 326 nM. In the case of `CC[C@H](C)[C@@H]1NC(=O)[C@H](CCCNC(=N)N)NC(=O)[C@H](CC(N)=O)NC(=O)[C@@H]2CSCCC(=O)N3CN(CN(C3)C(=O)CCSC[C@@H](C(=O)N[C@@H](C)C(N)=O)NC1=O)C(=O)CCSC[C@H](NC(=O)[C@H](Cc1c[nH]c3ccccc13)NC(=O)[C@H](CCCCNC(C)=O)NC(=O)[C@@H](N)CCC(N)=O)C(=O)N[C@@H](C)C(=O)N1CCC[C@H]1C(=O)N[C@@H](CC(C)C)C(=O)N[C@@H](CO)C(=O)N[C@@H](CC(=O)O)C(=O)N[C@@H](Cc1ccc(O)cc1)C(=O)N[C@@H](Cc1c[nH]c3ccccc13)C(=O)N2` [BCY7280, Q[K(Ac)]W-(SEQ ID NO: 34)-A] (H-QK(Ac)WCAPLSDYWCNRICA-NH2; linker 4-12-16 via TATA; N-terminus and C-terminus assumed), the Ki is reported as 219 nM. With `CC[C@H](C)[C@@H]1NC(=O)[C@@H]2CCCN2C(=O)[C@H](Cc2c[nH]c3ccccc23)NC(=O)[C@H](CO)NC(=O)[C@H](Cc2c[nH]c3ccccc23)NC(=O)[C@H](CC(N)=O)NC(=O)[C@H](CCCCN)NC(=O)[C@H](CCSC)NC(=O)[C@@H]2CSCCC(=O)N3CN(CN(C3)C(=O)CCSC[C@H](NC(=O)[C@H](C)N)C(=O)N3CCC[C@H]3C(=O)N[C@@H](Cc3ccccc3)C(=O)NCC(=O)N2)C(=O)CCSC[C@@H](C(=O)N[C@H](C(=O)N[C@@H](CC(N)=O)C(=O)N[C@@H](CCCCNC(=N)N)C(N)=O)[C@@H](C)O)NC(=O)[C@H](Cc2c[nH]c3ccccc23)NC1=O` [BCY7281, A-(SEQ ID NO: 1)-TN (HArg)] (H-ACPFGCMKNWSWPIWCTN[hArg]-NH2; linker 2-6-16 via TATA; N-terminus and C-terminus assumed) the Ki was 22.9 nM. Molecule `CC[C@H](C)[C@@H]1NC(=O)[C@@H]2CCCN2C(=O)[C@H](Cc2c[nH]c3ccccc23)NC(=O)[C@H](CO)NC(=O)[C@H](Cc2c[nH]c3ccccc23)NC(=O)[C@H](CC(N)=O)NC(=O)[C@H](CCCCN)NC(=O)[C@H](CCSC)NC(=O)[C@@H]2CSCCC(=O)N3CN(CN(C3)C(=O)CCSC[C@H](NC(=O)[C@H](C)N)C(=O)N3CCC[C@H]3C(=O)N[C@@H](Cc3ccccc3)C(=O)N[C@H](C)C(=O)N2)C(=O)CCSC[C@@H](C(=O)N[C@H](C(=O)N[C@@H](CC(N)=O)C(=O)N[C@@H](CCCCN)C(N)=O)[C@@H](C)O)NC(=O)[C@H](Cc2c[nH]c3ccccc23)NC1=O` [BCY7350, A-(SEQ ID NO: 67)-TNK] has a Ki of 10 nM.
